According to PubChem BioAssay AID686978 (National Center for Advancing Translational Sciences (NCATS), 2013):
Values joined by “and” are separate entries in the source; they are usually repeats but may differ in a detail not shown here. Equal entries are not always repeated. The campaign covered roughly 420,000 compounds. About 64,000 (15%) were called active. Inconclusive means that the source gave no clear call. Such entries were picked first, then a sample of the others. Calls come from the whole dose curve; as a rule, active = well fitted inhibition curve with a large enough effect; inconclusive = small, poorly fitted or top-dose-only effect; inactive = flat fitted curve, though single readings scatter. No potency is given beside an inconclusive call; the fits are too rough.

experiment: qHTS for Inhibitors of human tyrosyl-DNA phosphodiesterase 1 (TDP1): qHTS in cells in absence of CPT; conditions: DT40 Tdp1-/- hTDP1 cells, no CPT, ATP luminescence, 48 h; activity change, negative = growth inhibition: at 46.2 µM (top of the series) unless noted; note: nearly all actives have a fitted effect of over 55% in size
Outline: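 Seeded 400 DT40-hTDP1 cells/well (vehicle DMSO, no 20 nM CPT); pinned compounds; ≥48 hr at 37 °C; CellTiter-Glo luminescence as viability measure.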
% is set by controls: 0 for no effect and ±100 for the full control effect; potency is the fitted concentration of half-maximal effect; tags give direction and shape of the fitted curve.

Row | Compound | Potency | activity change, negative = growth inhibition
1 | Cc1ccc(Cl)cc1-n1c(=O)cc(N2CCN(c3ccccc3)CC2)[nH]c1=O | inconclusive [inhibitor, single point] | 
2 | Cc1ccc(/C=N/Nc2nc(N3CCOCC3)nc(N3CCOCC3)n2)o1 |  | inconclusive: -31.4% [inhibitor]
3 | OC1CCCN(CC(O)COc2ccc(-c3ccccc3)cc2)C1 (stereo not given) | active: 23.1 µM | 
4 | O=C(NCCc1ccccc1)C1CC(c2ccccc2O)=NO1 (stereo not given) |  | inactive: -28%
5 | CCOC(=O)c1sc2nc(SC)nc(-c3ccc(Cl)cc3)c2c1N | active: 14.6 µM | 
6 | CCOC(=O)c1cc(-c2ccc(OC)cc2)nn1-c1ccc(C(=O)O)cc1 |  | inactive: 6.89%
7 | COc1ccc(NC(=S)Nc2ccccc2C(F)(F)F)cc1 |  | inactive: -26.8%
8 | Nc1c(Cl)cc(/C=C2\C=Cc3ccccc32)cc1Cl | inconclusive [inhibitor, single point] | 
9 | Cc1cccc(NC(=O)C2CC(=O)OC23CCCC3)c1 (stereo not given) |  | inactive: 15.3%
10 | CCN(CC)CCN(Cc1cc2cc(C)c(C)cc2[nH]c1=O)C(=S)NCc1ccco1 |  | inactive: -19.7%
11 | COc1ccc(-c2csc(NC(=O)CCCc3cccs3)n2)cc1 |  | inactive: -3.64%
12 | CC(NC(=O)Nc1ccccc1O)(C(F)(F)F)C(F)(F)F | inconclusive [inhibitor, single point] | 
13 | CCOC(=O)c1c(S(=O)(=O)N2CCN(c3ccccc3OC)CC2)c(C)n(C)c1C | inconclusive [inhibitor, single point] | 
14 | COc1ccc(CCN=C(N)NS(=O)(=O)c2ccc(F)cc2)cc1OC | inconclusive [inhibitor, single point] | 
15 | COCCNC(=O)CN1CCC(NC(=O)c2ccco2)CC1 |  | inactive: 4.42%
16 | CC(=O)OCC(=O)C1(O)CCC2C3CC(C)C4=CC(=O)C=CC4(C)C3=CCC21C (stereo not given) | inconclusive [inhibitor, single point] | 
17 | COc1ccccc1CN1CCN(C(CC(C)C)c2nnnn2Cc2cccs2)CC1 (stereo not given) | inconclusive [inhibitor, single point] | 
18 | c1ccc(N2CCN(C3CCSC3)CC2)cc1 (stereo not given) |  | inconclusive: -24.7% [inhibitor]
19 | c1ccc(N2CCN(c3ncnc4[nH]ncc34)CC2)cc1 | inconclusive [inhibitor, single point] | 
20 | O=[N+]([O-])c1ccc(-c2c(O)c3ccccc3c3nc4ccccc4nc23)cc1 |  | inactive: -12.9%
21 | CCCCS(=O)(=O)N1CCN(S(=O)(=O)c2cccs2)CC1 |  | inactive: 1.66%
22 | CC1CCc2c(sc(NC(=O)c3ccco3)c2C(=O)O)C1 (stereo not given) | inconclusive [inhibitor, single point] | 
23 | Cc1ccc(CN2CC(N3CCC(c4ccccc4)CC3)CS2(=O)=O)cc1 (stereo not given) | inconclusive [inhibitor, single point] | 
24 | O=C(Cc1ccccc1[N+](=O)[O-])N1CCN(S(=O)(=O)c2ccccc2)CC1 |  | inactive: -6.41%
25 | CCOCCOC(=O)C1=C(C)NC(=O)NC1c1ccc2c(c1)OCO2 (stereo not given) |  | inactive: 5.25%

Row | Compound | Potency | activity change, negative = growth inhibition
26 | COc1ccc(N(CC(=O)Nc2ccc(S(=O)(=O)N3CCOCC3)cc2)S(=O)(=O)c2ccc(F)cc2)cc1 | inconclusive [inhibitor, single point] | 
27 | CN1CCCNc2nc3ccccc3nc21 |  | inactive: 24.7%
28 | CC(=O)c1cccc(NC(=O)c2sc3nc4c(cc3c2N)CCCC4)c1 | inconclusive [inhibitor, partial curve] | 
29 | CC(=O)c1ccc(N/C=C\C(=O)c2ccc(C)cc2)cc1 |  | inactive: 1.03%
30 | N#Cc1ccc(S(=O)(=O)N2CCN(c3nc(-c4cccs4)nc4ccccc34)CC2)cc1 | inconclusive [inhibitor, single point] | 
31 | CCCCN(CCCC)c1ccc(/C=C/c2ccnc3ccccc23)cc1 | inconclusive [inhibitor, single point] | 
32 | COc1ccc(NC(=O)c2c(Cl)n(C)c3ccccc23)cc1 | active: 8.2 µM | 
33 | COC(=O)c1sc(NC(=O)OCc2ccccc2)nc1CCNC(=O)OC(C)(C)C | inconclusive [inhibitor, single point] | 
34 | Nc1nonc1-n1nnc(C(=O)N/N=C/c2ccc(OCc3ccccc3F)cc2)c1CN1CCCCC1 | inconclusive [inhibitor, single point] | 
35 | Cc1cccc(N2CCN(C(=O)c3ccc4nc[nH]c4c3)CC2)c1C | inconclusive [inhibitor, single point] | 
36 | COc1ccc(-c2nc3c(s2)CCc2onc(-c4ccc(Br)cc4)c2-3)cc1 | inconclusive [inhibitor, single point] | 
37 | COc1cc(/C=C2/C(=O)NN(c3ccc(C)c(Cl)c3)C2=O)cc([N+](=O)[O-])c1O |  | inactive: -0.403%
38 | COC(=O)[C@]12CCCCC=C1N(Cc1ccc(Cl)cc1Cl)C(=O)[C@H](CC(=O)N1CCCCC1)C2 | active: 18.4 µM | 
39 | CN1C(=O)N(CC(=O)N2CCN(c3ccccc3F)CC2)C(=O)C12CCCCC2 |  | inactive: 4.07%
40 | COc1ccc(S(=O)(=O)N(CCc2ccccc2)CC(=O)NCc2ccccc2)cc1OC | inconclusive [inhibitor, single point] | 
41 | COCCN1C(=O)c2[nH]nc(-c3c(C)cc(C)cc3O)c2C1c1cccc(O)c1 (stereo not given) | inconclusive [inhibitor, partial curve] | 
42 | COc1ccc(S(=O)(=O)NC2CCCCCC2)c(OC)c1 |  | inactive: -2.81%
43 | COc1ccc(NC(=S)NCc2ccccc2)c(OC)c1 | inconclusive [inhibitor, single point] | 
44 | COc1ccc(C(=O)NC(=S)N(Cc2ccccc2)Cc2ccccc2)cc1 | active: 9.2 µM | 
45 | CN(C)CCCn1c2c(c(SCC(=O)Nc3ccc4c(c3)OCCO4)nc1=O)CCC2 | inconclusive [inhibitor, single point] | 
46 | O=C(Nc1ccncc1)Nc1ccc(Cl)cc1Cl | inconclusive [inhibitor, single point] | 
47 | COc1ccc(F)cc1S(=O)(=O)N1CCC2(CC1)OCCN2S(=O)(=O)c1cccs1 | inconclusive [inhibitor, single point] | 
48 | CCOc1ccc(NC(=O)C2CCCN(c3nnc(-n4c(C)ccc4C)s3)C2)cc1 (stereo not given) | inconclusive [inhibitor, single point] | 
49 | COCCn1cnnc1SCC(=O)Nc1cccc(S(=O)(=O)N(C)c2ccccc2)c1 |  | inactive: -7.12%
50 | Cc1ccc(NC(=O)CCC(=O)OCC(=O)c2ccc(Oc3ccc([N+](=O)[O-])cc3)cc2)c(C)c1 |  | inactive: -27.8%

Row | Compound | Potency | activity change, negative = growth inhibition
51 | Cc1ccc(Cc2c(-c3ccc(Cl)cc3)nc3c(Cl)cc(C(F)(F)F)cn23)cc1 | active: 18.4 µM | 
52 | Cc1ccc(Cl)cc1NC(=O)c1cccc(NC(=O)N2CCSc3ncccc32)c1 |  | inactive: -95.8%
53 | CCOc1ccccc1NC(=O)c1ccc2nccnc2c1 | inconclusive [inhibitor, single point] | 
54 | CCc1ccccc1N1C(=O)N(Cc2cccc(Cl)c2)c2ccccc2S1(=O)=O | inconclusive [inhibitor, single point] | 
55 | CC(C)(C)c1ccc(-n2ncc3c2CCCC3NC(=O)C2=NNC(=O)CC2)cc1 (stereo not given) | inconclusive [inhibitor, partial curve, poor fit] | 
56 | Cc1nc2ccc(C(=O)N3CCN(c4ccccc4)CC3)cc2s1 |  | inactive: -8.77%
57 | Cc1csc(=Nc2ccccc2)n1Cc1ccco1 | inconclusive [inhibitor, single point] | 
58 | CC(C)c1ccc(NC(=O)C2(C)Cc3c(-c4ccccc4)ccnc3O2)cc1 (stereo not given) | inconclusive [inhibitor, single point] | 
59 | O=C(NCCc1ccccc1)c1cc2ncc(Br)cn2n1 |  | inactive: -15.5%
60 | CCOc1ccccc1NC(=O)CSc1nnnn1C1CCCC1 |  | inconclusive: -30.7% [inhibitor]
61 | O=C(CSc1ccc(-c2ccccc2)nn1)N1CCCCC1 |  | inactive: -0.824%
62 | Cn1c(Cl)nc2c1c(=O)n(Cc1cccc(Br)c1)c(=O)n2C | inconclusive [inhibitor, single point] | 
63 | CC(=O)c1ccc(NC(=O)C2CCC(CNS(=O)(=O)c3cccc4nsnc34)CC2)cc1 (stereo not given) |  | inactive: -9.5%
64 | COc1ccc(OCCCC(=O)N(C)CC(=O)Nc2ccccc2Cl)cc1 |  | inactive: -11.1%
65 | Cc1ccc(Nc2ccc([N+](=O)[O-])cn2)cc1Cl | inconclusive [inhibitor, single point] | 
66 | COc1cccc(COC(=O)C2CC(=O)N(Cc3ccco3)C2)c1OC (stereo not given) | inconclusive [inhibitor, full curve, poor fit] | 
67 | Cc1ccccc1C(=O)NC(=S)N(CCO)Cc1ccccc1 |  | inactive: -25.1%
68 | COc1cccc(N(CC(=O)NCCSCc2ccco2)S(=O)(=O)c2ccccc2)c1 |  | inconclusive: -31.2% [inhibitor]
69 | O=C(c1ccco1)N(CCC(c1ccccc1)c1ccco1)Cc1ccco1 (stereo not given) | inconclusive [inhibitor, partial curve, poor fit] | 
70 | CCCNc1c(NS(=O)(=O)c2ccc3c(c2)CCCC3)c(=O)oc2ccccc12 | inconclusive [inhibitor, single point] | 
71 | c1ccc(Cc2ccc(OCCn3ccnc3)cc2)cc1 | inconclusive [inhibitor, single point] | 
72 | CC1CN(S(=O)(=O)c2cc(C(=O)NC(C)c3cccnc3)ccc2Cl)CC(C)O1 (stereo not given) |  | inactive: -21.6%
73 | Nc1ccccc1/C=C/c1ccccc1N | inconclusive [inhibitor, partial curve] | 
74 | C=CCN=C1NN=C(c2ccc3c(c2)OCCO3)CS1 |  | inactive: -29.5%
75 | NC(N)=NCc1cccc(I)c1 | active: 8.41 µM and active: 9.44 µM and active: 2.91 µM | 
